According to PubChem BioAssay (NCI):
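GI50 is the concentration that inhibits growth by half.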 For part of its entries the source gives two or more results. Only these are listed. The source may hold further records. Results that share an entry repeat one measurement across runs, samples, wells, individuals or studies. Brackets tell where a record comes from. The letters are not those of the source and start again with each entry.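 TGI: concentration producing complete growth inhibition.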

Legend:
Assay in all cases: growth of human tumour cells (NCI), 384-well format
SN12C renal = tested on: SN12C renal
OVCAR-5 ovarian = tested on: OVCAR-5 ovarian
MCF7 breast = tested on: MCF7 breast
U251 glioblastoma = tested on: U251 glioblastoma
HS 578T breast = tested on: HS 578T breast
OVCAR-3 ovarian = tested on: OVCAR-3 ovarian
PC-3 prostate = tested on: PC-3 prostate
786-0 renal = tested on: 786-0 renal
SW-620 colon = tested on: SW-620 colon
SNB-19 CNS = tested on: SNB-19 CNS
KM12 colon = tested on: KM12 colon
SK-MEL-5 melanoma = tested on: SK-MEL-5 melanoma
IGROV1 ovarian = tested on: IGROV1 ovarian
A549 NSCLC = tested on: A549 NSCLC
NCI-H460 NSCLC = tested on: NCI-H460 NSCLC
HCC-2998 colon = tested on: HCC-2998 colon
SF-268 CNS = tested on: SF-268 CNS
HCT-15 colon = tested on: HCT-15 colon
HT29 colon = tested on: HT29 colon
SNB-75 CNS = tested on: SNB-75 CNS
MDA-MB-435 melanoma = tested on: MDA-MB-435 melanoma
COLO 205 colon = tested on: COLO 205 colon
SK-OV-3 ovarian = tested on: SK-OV-3 ovarian
HOP-62 NSCLC = tested on: HOP-62 NSCLC
UACC-257 melanoma = tested on: UACC-257 melanoma
CCRF-CEM leukemia = tested on: CCRF-CEM leukemia
UACC-62 melanoma = tested on: UACC-62 melanoma
UO-31 renal = tested on: UO-31 renal
A498 renal = tested on: A498 renal
T-47D breast = tested on: T-47D breast
SF-539 CNS = tested on: SF-539 CNS

CCc1cc2c(cc1N1CCC(N3CCOCC3)CC1)C(C)(C)c1[nH]c3cc(C#N)ccc3c1C2=O
TGI (SN12C renal): 34.3 µM [sample A, 1 test] and 2.81 µM [sample B, 1 test]
TGI (OVCAR-5 ovarian): > 71 µM [sample A, mean of 2 tests] and 7.01 µM [sample B, 1 test]
GI50 (MCF7 breast): 3.99 µM [sample A, mean of 2 tests] and 387 nM [sample B, 1 test]
TGI (U251 glioblastoma): 32.5 µM [sample A, 1 test] and 2.33 µM [sample B, 1 test]
GI50 (HS 578T breast): 4.38 µM [sample A, mean of 2 tests] and 359 nM [sample B, 1 test]
GI50 (OVCAR-3 ovarian): 4.87 µM [sample A, mean of 2 tests] and 276 nM [sample B, 1 test]
TGI (OVCAR-3 ovarian): 9.92 µM [sample A, mean of 2 tests] and 599 nM [sample B, 1 test]
TGI (PC-3 prostate): 31 µM [sample A, 1 test] and 2.41 µM [sample B, 1 test]
GI50 (786-0 renal): 3.94 µM [sample A, mean of 2 tests] and 278 nM [sample B, 1 test]
TGI (786-0 renal): 8.02 µM [sample A, mean of 2 tests] and 751 nM [sample B, 1 test]
TGI (SW-620 colon): > 60.1 µM [sample A, mean of 2 tests] and 3.13 µM [sample B, 1 test]
TGI (SNB-19 CNS): 39.1 µM [sample A, 1 test] and 2.38 µM [sample B, 1 test]
GI50 (KM12 colon): 1.99 µM [sample A, mean of 2 tests] and 136 nM [sample B, 1 test]
GI50 (SK-MEL-5 melanoma): 3.93 µM [sample A, mean of 2 tests] and 330 nM [sample B, 1 test]
TGI (IGROV1 ovarian): > 52.9 µM [sample A, mean of 2 tests] and 2.35 µM [sample B, 1 test]
GI50 (A549 NSCLC): 3.83 µM [sample A, mean of 2 tests] and 155 nM [sample B, 1 test]
TGI (A549 NSCLC): 8.3 µM [sample A, mean of 2 tests] and 468 nM [sample B, 1 test]
GI50 (NCI-H460 NSCLC): 4.25 µM [sample A, mean of 2 tests] and 165 nM [sample B, 1 test]
TGI (NCI-H460 NSCLC): 8.45 µM [sample A, mean of 2 tests] and 330 nM [sample B, 1 test]
TGI (HCC-2998 colon): 37.8 µM [sample A, 1 test] and 2.1 µM [sample B, 1 test]
GI50 (SF-268 CNS): 18.1 µM [sample A, 1 test] and 209 nM [sample B, 1 test]
TGI (SF-268 CNS): 34.4 µM [sample A, 1 test] and 557 nM [sample B, 1 test]
GI50 (HCT-15 colon): 4.02 µM [sample A, mean of 2 tests] and 396 nM [sample B, 1 test]
TGI (HT29 colon): 31.3 µM [sample A, 1 test] and 2.81 µM [sample B, 1 test]
GI50 (SNB-75 CNS): 5.45 µM [sample A, mean of 2 tests] and 341 nM [sample B, 1 test]
TGI (MDA-MB-435 melanoma): 33.4 µM [sample A, 1 test] and 3.23 µM [sample B, 1 test]
TGI (COLO 205 colon): 56.4 µM [sample A, mean of 2 tests] and 2.51 µM [sample B, 1 test]
TGI (SK-OV-3 ovarian): 23.9 µM [sample A, 1 test] and 2.38 µM [sample B, 1 test]
GI50 (HOP-62 NSCLC): 4 µM [sample A, mean of 2 tests] and 285 nM [sample B, 1 test]
TGI (HOP-62 NSCLC): 8.25 µM [sample A, mean of 2 tests] and 804 nM [sample B, 1 test]
TGI (UACC-257 melanoma): 35.8 µM [sample A, 1 test] and 2.67 µM [sample B, 1 test]
TGI (CCRF-CEM leukemia): 33.6 µM [sample A, 1 test] and 2.57 µM [sample B, 1 test]
TGI (UACC-62 melanoma): 30.9 µM [sample A, 1 test] and 2.04 µM [sample B, 1 test]
GI50 (UO-31 renal): 11.5 µM [sample A, 1 test] and 376 nM [sample B, 1 test]
TGI (UO-31 renal): 24.6 µM [sample A, 1 test] and 1.29 µM [sample B, 1 test]
GI50 (A498 renal): 5.41 µM [sample A, mean of 2 tests] and 293 nM [sample B, 1 test]
TGI (A498 renal): 10.6 µM [sample A, mean of 2 tests] and 805 nM [sample B, 1 test]
GI50 (T-47D breast): 6.56 µM [sample A, 1 test] and 396 nM [sample B, 1 test]
TGI (T-47D breast): 19.7 µM [sample A, 1 test] and 1.66 µM [sample B, 1 test]
GI50 (SF-539 CNS): 5.2 µM [sample A, mean of 2 tests] and 188 nM [sample B, 1 test]
TGI (SF-539 CNS): 9.82 µM [sample A, mean of 2 tests] and 402 nM [sample B, 1 test]
